Reference: the supplement of paper PMC3334620
Whole data set: some 33,000 sequences, median “E-score (-0.5 to 0.5)” near -0.016, cut for the highest 2% near 0.32. The list shows a part of the results.

molecular target: T1, Stp1 (UniProt B3LFK1); test: PBM E-score (8-mer binding enrichment) (E-score (-0.5 to 0.5)); higher = stronger / more preferred TF binding; most listed sequences are background and not binding sites; settings: protein concentration: 200 nM; construct: GST-full length
T1 sequence: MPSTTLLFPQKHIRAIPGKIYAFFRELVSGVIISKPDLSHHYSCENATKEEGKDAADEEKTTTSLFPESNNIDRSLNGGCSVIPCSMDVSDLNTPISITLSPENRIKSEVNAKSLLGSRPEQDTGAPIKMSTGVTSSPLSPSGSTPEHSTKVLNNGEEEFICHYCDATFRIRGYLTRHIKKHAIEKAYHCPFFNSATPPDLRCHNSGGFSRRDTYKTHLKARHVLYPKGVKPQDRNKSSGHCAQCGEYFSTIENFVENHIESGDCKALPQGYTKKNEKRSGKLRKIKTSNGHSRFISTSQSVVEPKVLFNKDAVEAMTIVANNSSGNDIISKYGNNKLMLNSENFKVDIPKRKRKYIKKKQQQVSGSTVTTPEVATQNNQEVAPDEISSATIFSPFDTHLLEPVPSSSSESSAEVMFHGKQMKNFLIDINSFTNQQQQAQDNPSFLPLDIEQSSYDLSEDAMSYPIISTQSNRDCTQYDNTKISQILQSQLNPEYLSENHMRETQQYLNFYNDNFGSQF
Procedure, shortened: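 Masliner-normalised scans of fluorescent anti-GST signal were the basis for scoring. That signal came from GST-tagged yeast transcription factors applied at about 100-200 nM to double-stranded universal all-10-mer Agilent arrays on fresh or once-stripped slides. Each ungapped eight-base word, pooled with its reverse complement, received an E-score from the Universal PBM Analysis Suite.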

Row | Sequence | PBM E-score
1 | AGTTGGCA | 0.0438
2 | ACTTCACT | -0.126
3 | GGCTTAGA | -0.0744
4 | AACTCCAG | -0.162
5 | CATTCCAC | 0.0151
6 | AACCATAG | -0.0596
7 | GGCAAGCA | -0.0635
8 | ACTGTGAC | -0.034
9 | CTGCTCAA | -0.145
10 | CCGCGATC | -0.00115
11 | CTGGGACC | -0.375
12 | AGCAAAAA | 0.0129
13 | ACACACGT | 0.0897
14 | TGGACTAA | -0.162
15 | TAACACGA | 0.179
16 | AGTCCTAA | -0.0539
17 | ATCCAAGG | 0.00917
18 | GGATGACA | -0.0998
19 | CTTAGTTA | 0.109
20 | ACAGTCGG | -0.0418
21 | AAGGTCAT | -0.252
22 | AAAAAAGT | 0.139
23 | CTGTAACA | -0.293
24 | CGGTGCCC | 0.273
25 | AATTGAGT | 0.118

Row | Sequence | PBM E-score
26 | ATGGATTC | -0.0108
27 | AACCCCGG | -0.314
28 | ACCCCTGA | -0.212
29 | ACTCTGTG | -0.0819
30 | CCACATCA | -0.00698
31 | TCACGGCA | 0.401
32 | CCGAGGCG | 0.333
33 | CAATGTCA | 0.0949
34 | ACTATCGG | 0.0358
35 | CTTCCGTA | 0.163
36 | ACGTAATC | -0.169
37 | AGAGAAAA | 0.184
38 | GTATATAA | 0.168
39 | ATTGGACG | -0.153
40 | AGTGACGG | -0.0247
41 | ACTTTGCC | 0.19
42 | ACATATAT | 0.136
43 | ACGACGGC | 0.132
44 | CACTACGG | 0.221
45 | GTCAGTGA | -0.00107
46 | TCCGATCA | -0.0427
47 | AGCCAAGA | -0.0283
48 | AGTGTTTA | 0.0443
49 | CAGCTGCC | 0.119
50 | ATTTCGGC | 0.0486

Row | Sequence | PBM E-score
51 | CCCTTTGC | 0.0587
52 | GGATTGCC | 0.0318
53 | ATTTAAAT | 0.282
54 | ACACGAGC | -0.0595
55 | ATGACTCG | -0.116
56 | AGATAAAG | 0.148
57 | AACTTAGC | 0.0585
58 | ACAATCCA | 0.121
59 | CATTCGCG | 0.125
60 | CGACGGGC | 0.111
61 | CTAACGGC | 0.313
62 | CAATTCAA | 0.101
63 | ACCTTAAT | -0.0695
64 | AATCGGGC | -0.112
65 | CAAGCATG | -0.0249
66 | CGGATTTA | 0.124
67 | CCAGCAAC | -0.0606
68 | AGAGGCAT | 0.242
69 | AGACATAC | -0.142
70 | GACAACTA | 0.014
71 | ATCGTAGC | 0.0207
72 | ACTCCGGC | 0.0708
73 | GATGCTAA | 0.147
74 | AAGCATAA | 0.08
75 | AATTTAGG | 0.119

Row | Sequence | PBM E-score
76 | ACGGCGAC | 0.467
77 | AAAGAGAC | -0.114
78 | ATGCATCG | -0.0532
79 | GAATGTTA | 0.152
80 | AGCGTCCG | -0.155
81 | AGTGTGAA | 0.0344
82 | GCGATCAA | -0.0307
83 | GTCATGTA | -0.163
84 | GCACCCAA | 0.00321
85 | ATGGGTTG | -0.0322
86 | CTAAGCAG | -0.13
87 | TCAATCCA | -0.0386
88 | GATTGGCA | 0.113
89 | CGTAGGCC | 0.00246
90 | GCCCTCGA | -0.192
91 | AGCGTATC | 0.0498
92 | ACGAGCCT | -0.0868
93 | CTACCCTC | -0.276
94 | ACCAGCAA | 0.0546
95 | AGCTAGAC | -0.00755
96 | GGACTTAC | -0.147
97 | TCCGAGGA | -0.044
98 | CCCGTCTC | -0.187
99 | CCGGTCCG | -0.235
100 | ATGAGATA | 0.0924

Row | Sequence | PBM E-score
101 | CCTCCTGA | -0.111
102 | GAATGGCC | -0.00301
103 | CTCCGGTC | -0.169
104 | CATCGAGC | 0.064
105 | CAGTCGTC | -0.211
106 | CATGTCGG | -0.112
107 | CAGCGTAG | -0.0991
108 | AAGGACCG | -0.117
109 | AGCGTCTC | -0.216
110 | GGCTCACA | 0.00723
111 | GACACGTA | -0.0652
112 | GAGTATGC | -0.049
113 | CCTCCGTA | -0.0433
114 | AGTCCTAG | -0.221
115 | CATTCAAG | -0.0179
116 | CTACTTAA | -0.106
117 | CGGAGCCC | -0.125
118 | AGAAGACA | -0.0204
119 | AGGAGAGC | -0.218
120 | CTATAGCA | 0.0532
121 | AAGCGTTG | -0.0552
122 | TATTTCCA | 0.0062
123 | AAAAATGG | 0.139
124 | TCCATACA | 0.129
125 | CGTGGTAC | -0.128

Row | Sequence | PBM E-score
126 | ACCGTGAC | -0.171
127 | ACTTGACC | -0.228
128 | CAGCCGCG | 0.259
129 | CCGGGCAG | -0.144
130 | ATACAGTA | 0.126
131 | CATCTAGC | 0.0607
132 | ACCGGTTC | -0.292
133 | ATGAAGCG | 0.0289
134 | CACGTTCC | -0.0314
135 | CAAACACA | 0.114
136 | AGAGTAGA | 0.11
137 | AGGTCGCC | -0.00093
138 | CGCGACGA | 0.108
139 | CAAGCTAG | -0.189
140 | AGATCAGC | -0.04
141 | CCATTACC | -0.00731
142 | GAGAGTTA | -0.146
143 | CGAAAATA | 0.25
144 | ACTCGCGC | 0.224
145 | ATCTCTTC | 0.0306
146 | AGGCAAGA | 0.107
147 | AAACTTAT | 0.0945
148 | CTTTATTA | 0.00896
149 | CGACGACG | 0.0471
150 | CATCCGCA | 0.25

Row | Sequence | PBM E-score
151 | TGGGTCAA | -0.153
152 | CATTCTCA | 0.187
153 | TATATAAA | 0.213
154 | ACCTCACC | -0.128
155 | ACTCATGA | 0.12
156 | GTTGATGA | -0.0685
157 | AGGACGAC | -0.137
158 | CATACGCA | 0.138
159 | GATTTTGA | 0.216
160 | CACGGCCG | 0.338
161 | AATTTATG | 0.248
162 | AGATTACG | 0.0365
163 | TTTCCAAA | 0.052
164 | TATAATAA | 0.288
165 | AGACCTTA | -0.15
166 | CCAATGGG | -0.36
167 | AAAATACT | 0.14
168 | CAAGTCCG | -0.0822
169 | AAATATGT | 0.165
170 | CCCGTAGA | -0.254
171 | ACCACGGT | -0.259
172 | ACAATCGC | 0.142
